Data: the RNAGym collection of RNA variant scans (doi:10.7554/elife.90254)
The source gives no read counts; variants with many changes may rest on few reads.

B1: LINE1-mini (parent)
chain: GGCAGAGCUCAACACAGCGUGGCAAAGUGGCUGUGGCUAGACUGCC

Variants of: B1
Assay: self-cleavage, relative activity (ratio to wild type); higher = more cleavage; in vitro, sequencing; the parent is a self-cleaving ribozyme

| Variant | self-cleavage |
| --- | --- |
| GGCAGAGCUCAACACAGCGUGGCUAAUUGGCGGUCGCUGGACUGUU [A24U G27U U32G G35C A39G C45U C46U] | 0.14 |
| GGCUGAGCUCAACACAGCGUGGCAAAGUGGCUGUAGCUAGUCUGCC [A4U G35A A41U] | 0.04 |
| GGCAGAGCUCAACCCAGGGUGGCAAAGUGGCUGUGCCUAGACUGCC [A14C C18G G36C] | 0.01 |
| GGCAGAGAUCAACACAGCCUGGCAAAGUGGCUGUGACUAGACUGCC [C8A G19C G36A] | 0.11 |
| GGCAGAGCUCUACAGAGCGUGGCAAAGUGGAUGUGGCUAGACUGGC [A11U C15G C31A C45G] | 0 |
| GGCAGAGCUCAACACCGCUUGGCAAAGUGGCUGCGGCAAGACUGCA [A16C G19U U34C U38A C46A] | 0.05 |
| UGCAGAGCUCAACACAGCGUGGGAAAGUGGCUGUGGCUAGACUUCC [G1U C23G G44U] | 0.09 |
| GGCGGAGCUCAUCACAGCGUGGCAAAGUGGCAGUGCCCAGACUGCC [A4G A12U U32A G36C U38C] | 0.14 |
| GGCAGAGCCCAACACAGCGUGGCGAAGUGGUUGUGGCUACUCUGCC [U9C A24G C31U G40C A41U] | 0.01 |
| GGCAGAGCUCAACACAGCGGGGCAUAGCGGCUGUGGCUAGACUGCC [U20G A25U U28C] | 1.78 |
| GGCACAGCUCGACAUAGCGUGGCAAUGUGGCUGUGGCUAGACUGCC [G5C A11G C15U A26U] | 0.03 |
| GCCAGAGCUCAACACAGCCUGGCAAACUGGCUGUAGCUAGACUGCC [G2C G19C G27C G35A] | 0.07 |
| AGAAGAGCUCAACACAGCGUGGCAAAGUGGCUGUAGUUAGACUGCC [G1A C3A G35A C37U] | 1.1 |
| GGCAGAGCUCGACACAGCGUGGCACCAUGACUGUGGCCAGACUGCC [A11G A25C A26C G27A G30A U38C] | 0.01 |
| GGCAGAGCUCAACACAGCGUAGCAAAGGGGCUGUGGCUGGACUGCC [G21A U28G A39G] | 0.35 |
| GGAAGAGCUCAAGACAGCGUGGCAAAGUGGCCGUGGCAAGACUGCC [C3A C13G U32C U38A] | 0.11 |
| GGCAGAGCUCAAAACAGCGUGGCUAACUGGCUGUGGCUAGAUUGCC [C13A A24U G27C C42U] | 0.02 |
| GGCAGAGCUUAACACAGCGUGGCAAAGUGGCUAUGGCUCGACAGCC [C10U G33A A39C U43A] | 0.04 |
| GGCAGAGCUCAAUACAGCAUGGCAAAGUGGCUGAGGCUAGACUGCC [C13U G19A U34A] | 0.04 |

| Variant | self-cleavage |
| --- | --- |
| GGCAGAGCUCAACACCGCGUGGCAUAAUGUCUCUGGCUAGACUUCC [A16C A25U G27A G30U G33C G44U] | 0.05 |
| GGCAGAGCUCAACACAGCGUGGCAAAGUGGCUGUCGCUAUACCGCC [G35C G40U U43C] | 0 |
| AGCCGAGCUCAACCCAGCGUGGCUAAGUGGCUGUGGCUAGACUGCC [G1A A4C A14C A24U] | 0.08 |
| GCCAGAGCUCAAUACAGCGUGCCAAAGUGGCUGUGACUAGACUGCC [G2C C13U G22C G36A] | 0.04 |
| GGCAGAGCUCAACAGAGGGGGGCAAAGUGGCUGUGGCUAGACUGCC [C15G C18G U20G] | 0.04 |
| GGCAGAGCUCAACACAUCGUGGCAAAGUGGCUGUGGCUAGCCUACC [G17U A41C G44A] | 0.02 |
| GGCAGAGCUCAACACAGCGUGGCAGAGUAGCUGUUGCUAGACUGCC [A25G G29A G35U] | 0.09 |
| GGGAGAGCUCAACACCGCGUGGCAAAGUGGCUGUGGCGAGACUGCC [C3G A16C U38G] | 0.04 |
| GGCAGAGCUCAACAGAGCGUGGCAAAGUGGCUGUGGCUAGAAUGGC [C15G C42A C45G] | 0.03 |
| GGCAGAUCUCAAAACAUCAUGGCAAAGUGGCUGUGGCUAGACAGCC [G7U C13A G17U G19A U43A] | 0.08 |
| GGCAGAGCUCAACACAGCGUUGCAAAGUGGCUGAGGCUAGAAUGCC [G21U U34A C42A] | 0.15 |
| GUCAAAGCUCAACACAGCGUGGCAAAUUGGCUGUUGCUAGACUGCC [G2U G5A G27U G35U] | 0.04 |
| AGCAGAGUUCAACACAGCGUGGCAAUGUUGCUGGGGCUAGACUGCC [G1A C8U A26U G29U U34G] | 0.02 |
| GGCAAAGCUCAACACAGCGUGGCAAAGUGGCUUUGGCUAAACUGCC [G5A G33U G40A] | 0.09 |
| GGCAAAGCUCAACACAGCGUGGCAAAGUUGCUAUGGCUAGACUGCC [G5A G29U G33A] | 0.11 |
| GGCAGAGCUGAACACAGAGUGGCAAAUUGGCUGUGGCCAGACUGCC [C10G C18A G27U U38C] | 0.01 |
| GGCAGAACUCAACACAGCGUGGCCAAGUGCCUGUGGCUAGACUGCC [G7A A24C G30C] | 0.36 |
| GGGAGAGCUCAACACAGCUUGGCAUAGUGGCUGUAGCUAGCCUGCC [C3G G19U A25U G35A A41C] | 0.03 |
| GGCAGAAAACAACACAGCGUGGCAUAGUGGCUGUGGCUAGACUGCC [G7A C8A U9A A25U] | 0.18 |

| Variant | self-cleavage |
| --- | --- |
| GGCAGAGCACAACACAGCGUGGCAAAGUGGCUGUCGCUAGAGUGCC [U9A G35C C42G] | 0.03 |
| GGCGGAGCUCAUCAGAGCGUGGCAGAGUGGCUGUGGCUAGACUGCC [A4G A12U C15G A25G] | 0.01 |
| GGCAGAACUCAAUAUAGCGUGGCAAAGUGGCUGUGGCUAGACUGCC [G7A C13U C15U] | 0.19 |
| GGCAGAUCCCAACACAGCGUGGCAAUGUGGCUGUGUCUAGACUGCC [G7U U9C A26U G36U] | 0.02 |
| GGCAGACAUCAAAUCAGCGUGGCAAAGUGGCUGUUGCUAAACCGCC [G7C C8A C13A A14U G35U G40A U43C] | 0.41 |
| GGCAGAGCUAAACAAAGCGUGGCAAAGUGGCUGUGGCUAGACUCCU [C10A C15A G44C C46U] | 0.03 |
| CGCAGAGCUCAUCACAGAGUGGCAAAGUGGCUGUAGAUAGACUGUC [G1C A12U C18A G35A C37A C45U] | 0 |
| GGCAAAGAUCAACACAGCGUGGCAAAGUGGCUGUGUCUAGACUCCC [G5A C8A G36U G44C] | 0.07 |
| GGCAGAGCUCGACACAGUGUAGCAAAGUGACUGUGGCUAGACUGCC [A11G C18U G21A G30A] | 0.02 |
| GGCAGACAUCAACACGGCGUGGCAAAGUGGCUGUGGCUAGACUGCC [G7C C8A A16G] | 0.14 |
| GGCAGAGACCAACACAGCCUGGCAAAGUGGCUGUGGCUAGACUGCC [C8A U9C G19C] | 0.05 |
| GGCAGAGCUCAACACAGCGUGGCAAAUUGGCUUUGGCUAGAAUGCC [G27U G33U C42A] | 0.05 |
| GGCAGAGCUCACCACAGCGUGGAAAAGUGGCUGUGGCUAGAGUGCC [A12C C23A C42G] | 0 |
| GGCAGAGCUCAACACAGCGUGGGAAAGUGGCUGUGUCUAGCCUGCC [C23G G36U A41C] | 0.03 |
| GGCAGAGCUCAACACAGACUGGCAAAGUGGCUGUAGCUAUACUGCC [C18A G19C G35A G40U] | 0.02 |
| UUCAGAGCUCAACGCAGCGUGGCAAAGCGGCUGUGGCUAGACUGCU [G1U G2U A14G U28C C46U] | 0.02 |
| GGCAGAGCUCACCACAGCGUUGCAAAGUGGCUGUGGCUGGACUGCC [A12C G21U A39G] | 0.01 |
| GGCGGAGCUCAACCCAGCGUGGAAAAGUGGCUGUGGCUAGACUGCC [A4G A14C C23A] | 0.33 |
